# Reference: PMC12136788
# This is one part of the list.
# T1: UNK ZnF1-3 (human, UniProt Q9C0B0 31-174)
# T1 sequence: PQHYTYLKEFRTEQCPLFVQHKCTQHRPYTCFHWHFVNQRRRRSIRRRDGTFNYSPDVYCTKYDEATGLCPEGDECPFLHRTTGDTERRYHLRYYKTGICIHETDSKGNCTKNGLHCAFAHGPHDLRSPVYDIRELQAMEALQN
# B1: chr6:145182920:145182921:-_ENSMUSG00000030265_ENSMUST00000032399|mus_mus|FALSE|FALSE (ssRNA)
# RNA: GGGAGUUCUACAGUCCGACGAUCCUCCUCUUGACCUGCUGUGUCGAGAAUAUCCAAGAGACAGGUUUCUCCAUCAAUUACUACUUGUUUCCUGUAGGAGUCCUCUAUCGUAGGGUCAUACUCAUCCACAAAGUGAUUCUGAAUCAACAGAGGAUUGAGCAUCA
# B2: chr1:196642661:196642662:+_ENSMUSG00000026640_ENSMUST00000027952|mus_mus|FALSE|FALSE (ssRNA)
# RNA: GGGAGUUCUACAGUCCGACGAUCUCCCAUACAUUCAGGAACUUUGGUCCUGUUUGGUGGGGACCACACUUCUUUAUGCGUGGAUGUCAAAAUGGAGACCAAGCGUGUCAAAAUGAUGACCUUGACUGAGUCUCAAAGAAGCUUCAACAGAGGAUUGAGCAUCA
# B3: chr7:135612270:135612271:-_ENSG00000105887_ENST00000393085|hu_mus|hu_hu_hu_mus_False|8_98 (ssRNA)
# RNA: GGGAGUUCUACAGUCCGACGAUCGUUUUUUUCUGAGUAAGUAUUACGUACUUCAGUGGAAAACAAAACUUAACCUUUUAUUAAUGCGUGUUGUACCAAAAGCAGACAUUUUAGCUUCAUUUAUUCACUCAAAAUAUCAUUAAGCAACAGAGGAUUGAGCAUCA
# B4: chr5:141111964:141111965:-_ENSMUSG00000036565_ENSMUST00000042661|mus_mus|FALSE|FALSE (ssRNA)
# RNA: GGGAGUUCUACAGUCCGACGAUCGUGCUCGUCUGUCUUUCUCCUCCGGCAGCACAGCCAGAAGGAAUAGAAGAGUAGGAAGAGGAGAUCUAGGGCCAGGCAGGCCAGGGCGGUGGCCCCCAGCAGCAGCAACGCCUGCUGGUACAACAGAGGAUUGAGCAUCA
# B5: chr4:140556289:140556290:+_ENSMUSG00000036622_ENSMUST00000037055|mus_mus|mus_mus_mus_hu_False|28_48 (ssRNA)
# RNA: GGGAGUUCUACAGUCCGACGAUCGAUGGAGCUCACCAGGCCCCCUUUUGCCGUGCAGAACCCUGUGCGGGUCACCACUGCCAGGACACGGGGUCCCACAUAGGCCCGGGCCUGCAGGAUGAGGGUCCCGCAGAAGAGUGUGUGCAACAGAGGAUUGAGCAUCA
# B6: chr4:76721835:76721836:+_ENSG00000138768_ENST00000264904|hu_mus|hu_hu_hu_mus_True|1_28 (ssRNA)
# RNA: GGGAGUUCUACAGUCCGACGAUCGUUUGGCUGGGGUUUCUGAGACGCUCUGGAAUAUAACUCAUGUUUGCUAAUAAAUCCUAGUUUCUCUAUGAAAUUCUCUUUGCAAUCCUCUUCCUCUAUUAGUUGCUUUAGUUCUCUUUCCAACAGAGGAUUGAGCAUCA
# Biological target: T1, UNK ZnF1-3
# Test: nsRBNS (natural sequence RNA bind-n-seq); RBNS binding buffer (assumed for nsRBNS): 25 mM Tris pH 7.5, 150 mM KCl, 3 mM MgCl2, 0.01% Triton X-100, 500 ug/ml BSA, 20 U/ml SUPERase-In, 4 C; UNK is unkempt and MSI1 is Musashi-1; names of the RNAs are library labels; protein concentration not given here; high values mean tight binding
row,Binder,binding signal
1,B1,0.527 enrichment R
2,B2,0.576 enrichment R
3,B3,0.401 enrichment R
4,B4,0.851 enrichment R
5,B5,0.859 enrichment R
6,B6,0.555 enrichment R
